The antibiotic and cytotoxicity screens of Wong et al. (2023)
The list shows a part of the results.

system: S. aureus RN4220; experiment: growth inhibition call (relative growth <= 0.2); conditions: 50 µM

Growth inhibition call, inactive:
COc1ccc(CN(C)C[C@H]2OCCCC[C@H](C)Oc3ccc(NC(=O)C4CCCCC4)cc3C(=O)N([C@H](C)CO)C[C@H]2C)cc1
O=C(C[C@@H]1CC[C@@H]2[C@H](COC[C@@H](O)CN2S(=O)(=O)c2ccccc2Cl)O1)NCc1ccccc1Cl
C[C@@H]1CN([C@@H](C)CO)C(=O)CCCn2cc(nn2)CO[C@H]1CN(C)C(=O)Nc1ccc(N2CCCCC2)cc1
COc1cc2c(cc1OC)C([C@H](C(=O)N(CCc1ccc(OC)c(OC)c1OC)CCc1ccc(OC)c(OC)c1OC)c1ccccc1)=NCC2
COc1ccc(CN(C)C[C@H]2Oc3ccc(NC(=O)Cn4cnnn4)cc3CC(=O)N([C@H](C)CO)C[C@@H]2C)cc1
C[C@H](CO)N1C[C@H](C)[C@@H](CN(C)S(=O)(=O)c2ccccc2)OCCCC[C@H](C)Oc2ccc(NC(=O)c3ccccc3)cc2C1=O
C[C@H](CO)N1C[C@H](C)[C@H](CN(C)Cc2ccc(C(F)(F)F)cc2)Oc2c(NC(=O)Nc3ccc(F)cc3)cccc2C1=O
COCC(=O)N1CC[C@]2(CC(C(=O)NCc3cnc(C)cn3)=NO2)C1
